Experimental data as given in PubChem BioAssay AID1963576 (National Center for Advancing Translational Sciences (NCATS), 2024).
About 60 (0.1%) of roughly 46,000 compounds were called active. Roughly 3% stayed inconclusive and do not appear here. The call rests on the fitted dose curve; in most records, active means well fitted inhibition curve with a large enough effect; inconclusive means small, poorly fitted or top-dose-only effect; inactive means no such curve, though single readings can be large or run the other way. Some of the results follow.

Experiment: Primary qHTS assay for Inhibitors of ovarian cancer metastasis using an organotypic tumor microenvironment (TME) model. Further: nearly all actives have a fitted effect of over 65% in size.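 On activity change, negative = inhibition: plate controls were DMSO wells for no effect and tomatine positive control wells for full effect.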
Settings: SKOV3ip1-GFP adhesion/invasion on 3D omental model, fluorescence; series mostly up to 45.8 µM; activity change, negative = inhibition: at the top concentration
How it was run: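 Adhesion/invasion was scored as fixed GFP-labeled SKOV3ip1 cell counts (488/509 nm), normalized to DMSO and tomatine controls. Cancer cells in serum-free medium, with four compound doses (0.36-46 umol/L), sat 2 hr at RT then 16 hr at 37 C on a 48 hr fibroblast/mesothelial/ECM culture.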

Activity change, negative = inhibition, inactive:
CCCCC(CC)CNC(=O)Cc1ccc(-n2c(=O)[nH]c3ccccc3c2=O)cc1 (stereo not given) -3.93%
CCCCC12CN3CC(C)(CN(C1)C3c1c[nH]c3ccccc13)C2=O (stereo not given) -7.84%
Cc1ccc(NC(=O)C(CC(C)C)N2Cc3ccccc3C2=O)cc1F (stereo not given) 13.2%
CCc1cc2c(cc3c(=O)n(CCCC(=O)NCc4cccc(Br)c4)ncn32)s1 -4.57%
Cc1cc(Nc2ccc(F)cc2F)nc(-n2nc(C)cc2C)n1 -7.56%
COc1cc2c(cc1OC)n(CC(=O)c1cc(C)ccc1C)c(=O)n1nc(CCn3nc(C)cc3C)nc21 -14.6%
CC1=C(C(=O)Nc2cccnc2)C(c2ccc(C)cc2)n2nc(SCc3ccccc3F)nc2N1 (stereo not given) 6.28%
CN(C)c1ccc(NC(=O)Cn2c(SCc3ccc(F)cc3)nc3ccncc32)cc1 8.2%
Cc1ccccc1OCC(=O)Nc1ccc(S(=O)(=O)N(Cc2ccccc2)c2ccccc2)cc1 -16.3%
COC(=O)c1ccc(NC(=O)c2cc(S(=O)(=O)N3CCOCC3)cn2C)cc1 18.4%
CC(=O)Nc1ccc(NS(=O)(=O)c2c(C(=O)N3CCCCCC3)c(C)n(C)c2C)cc1 0.296%
Cc1ccc(-n2ncc(C(=O)NCc3ccc4c(c3)OCO4)c2C2CCN(C(=O)OC(C)(C)C)CC2)c(C)c1 -0.567%
Cc1ccc(OCCSc2nnc(-c3cccs3)o2)cc1 12.7%
Cc1oc2cc3oc(=O)c(CCC(=O)NCCc4ccccc4F)c(C)c3cc2c1C -13.2%
COc1ccc(Cn2c(=O)c3oc4ccccc4c3n(CC(=O)Nc3c(C)cccc3C)c2=O)cc1 -4.55%
Cc1ccc(C(=O)COC(=O)CCC(=O)Nc2ccc(Oc3ccccc3)cc2)cc1 1.92%
COc1ccc(NC(=O)Nc2nnc(N3CCCC3)s2)cc1 2.91%
CN1CCN(C(=O)c2cnn(-c3ccc(F)cc3F)c2C2CCN(C(=O)OC(C)(C)C)CC2)CC1 8.19%
Cc1ccc2c(c1)c1c(c(=O)n(-c3ccccc3)c(=O)n1Cc1ccccc1C)n2C -4.59%
Cc1ccc(CNS(=O)(=O)c2cnc(N)nc2)cc1 10.8%
COc1ccc(Cn2ccc3nc(C)c(C(=O)NCc4ccc(SC)cc4)cc3c2=O)cc1 6.3%
Oc1ccc(-c2nc3ccc(Cl)cn3c2Nc2ccc(Cl)cc2)cc1 -7.04%
O=C(c1cc2c(Cl)nc3ccccc3c2s1)N1CCCCC1 37.8%
CCc1ccc2ncc3c(-c4ccc(C)cc4)nn(CC(=O)NCc4ccccc4)c3c2c1 1.32%
COc1ccc(CNC(=O)CSc2nnc(C)c3c(C)n(-c4ccccc4)nc23)c(OC)c1 0.487%
CC(C)CCNC(=O)Cn1nc(N2CCN(c3ccccc3)CC2)ccc1=O 7.33%
Cc1ccccc1Cn1c2ccccc2c2cnn(CC(=O)NC3CCCCCC3)c(=O)c21 1.5%
COc1ccc(Br)cc1Cn1nnc(C(=O)Nc2cccc(SC)c2)c1N 9.54%
CCOC(=O)c1sc2ncn(CC(=O)Nc3ccc(OC)c(Cl)c3)c(=O)c2c1C 0.395%
COc1ccc(S(=O)(=O)NCc2nc(-c3ccccc3)no2)cc1 6.57%
CSc1cccc(NC(=O)c2cc3c(COC(C)=O)cnc(C)c3oc2=O)c1 27.5%
COc1cc(CNC(=O)c2cc3n(n2)CCCN(Cc2cccc(F)c2)C3=O)cc(OC)c1OC 9.59%
CC(=O)c1cccc(NC(=O)CSc2ncc3c(n2)-c2cc(Cl)ccc2N(Cc2ccccc2)S3(=O)=O)c1 3.28%
CN(CC(=O)Nc1cccc(F)c1)S(=O)(=O)c1ccc2c(c1)n(C)c(=O)c(=O)n2C 6.82%
Cc1ccc(NC(=O)c2ccc(CN3CC(=O)N4CCCCC4C3=O)cc2)c(Cl)c1 (stereo not given) -11.5%
COc1ccc(-c2ccc(=O)n(CC(=O)Nc3cc(OC)ccc3OC)n2)cc1 -10.8%
Cc1cccc(-n2ncc3c(NNC(=O)c4ccccc4Cl)ncnc32)c1 -2.11%
CCOC(=O)c1cccc(NC(=O)Nc2c(C)n(C)n(-c3ccccc3)c2=O)c1 -6.11%
O=c1[nH]c(C2CCCN(S(=O)(=O)c3ccccc3)C2)nc2c1nnn2Cc1ccccc1Br (stereo not given) 2.23%
COc1cc(NC(=O)Cc2noc3ccccc23)cc(OC)c1OC 9.76%
CCOC(=O)c1ccc(NC(=O)CC(C)n2nc(C)cc2C)cc1 (stereo not given) -9.58%
CCS(=O)(=O)NCCc1csc2nc(-c3ccc(OC)cc3)nn12 1.03%
COc1ccc(OC)c(S(=O)(=O)NCCS(=O)(=O)N2CCN(c3ccccc3F)CC2)c1 -20%
CCc1cnc2c(c1SCc1cc(OC)cc(OC)c1)c(=O)n(C)c(=O)n2C -5.06%
CCCCN(CC)CCCNC(=O)c1cn(C)c(=O)c2c1c1ccccc1n2C -10%
Cc1nn(CCC(=O)Nc2cccc(C#N)c2)c(C)c1S(=O)(=O)N1CCCCC1 1.68%
Cc1cccc(C)c1NC(=O)Cn1cc(C(=O)C2CC2)c2ccccc21 6.39%
COc1cccc(C(=O)Nc2nnc(S(=O)(=O)N3CCCc4ccccc43)s2)c1 5.11%
O=S(=O)(NCC(c1ccccc1)N1CCc2ccccc21)c1ccc(Cl)cc1 (stereo not given) -7.7%
C=CCc1ccccc1OCCSc1nc(-c2ccccc2F)nc2cc(=O)[nH]n12 4.14%
CSc1ncc(C(=O)NCc2cccc(C)c2)c(-c2ccccc2)n1 -0.148%
COc1ccccc1/C=C/C(=O)Nc1nc2n(n1)C(c1ccc(F)cc1)C=C(c1ccccc1)N2 (stereo not given) 13.8%
Cc1cccc(NC(=O)c2c(NC(=O)c3ccccc3)sc3c2CCC3)c1 6.85%
COc1ccc(CNC(=O)Cn2cccc2C(=O)c2ccccc2C)cc1 -2.55%
Cc1cccc(N2CCN(c3nc4ccccc4c4nnc(C)n34)CC2)c1C -1.47%
CCN(CC)C(=O)c1sc2c(c1C)c(=O)n(-c1ccc(OC)cc1OC)c(=O)n2CC(=O)Nc1ccccc1 2.43%
COC(=O)c1ccc(NC(=O)CC2C(=O)N(c3ccccc3)C(=O)N2Cc2cccs2)cc1 (stereo not given) 3.8%
COc1ccc(C(=O)c2cn(Cc3ccccc3OC)c3cc4c(cc3c2=O)OCO4)cc1 -11.3%
CC(C)c1ccc(C2NC(=O)c3c(sc4c3CCN(C)C4)N2)cc1 (stereo not given) -0.347%
CCc1cccc(NC(=O)CC(c2ccc(OC)cc2)N2Cc3ccccc3C2=O)c1 (stereo not given) -12.6%
Cc1cc(C)cc(NC(=O)CCn2cnc3ccccc3c2=O)c1 11.3%
CC(=O)N1CCCC1c1nc2ccccc2n1Cc1cccc(C)c1 (stereo not given) 11.1%
CSc1ccc(CCNC(=O)c2ccc(-n3c(C)cc4c3CCC(C)C4)cc2)cc1 (stereo not given) -9.36%
CCCCC(=O)OC1=CN(Cc2ccccc2)S(=O)(=O)c2ccccc21 2.59%
CCOc1ccc(N(CC(=O)OC)S(=O)(=O)c2ccc3c(c2)n(C)c(=O)c(=O)n3C)cc1 -2.13%
COc1ccc(NC(=O)c2ccc(NC(=O)CCS(=O)(=O)c3cccs3)cc2)cc1Cl -0.94%
C=CCC(CC=C)(CNC(=O)C(=O)Nc1ccc(Br)cc1)c1ccc(OC)c(OC)c1 -1.55%
O=C(NCC(c1ccc2c(c1)OCO2)N1CCN(c2ccccc2)CC1)c1ccc(F)c(F)c1 (stereo not given) -4.08%
Cc1ccc(OCCCn2c(-c3ccc(Cl)cc3)nc3ccccc3c2=O)cc1C 1.38%
CCCN[C@H]1CCc2nc(N)sc2C1 -5.55%
CCc1nnc(NC(=O)CSc2nccn2Cc2ccc(Cl)cc2)s1 -6.42%
CCCc1nnc(SCc2cc(=O)c3c(C)cc(C)cc3[nH]2)n1C 5.17%

outcome, inactive:
CNS(=O)(=O)c1cn(CC(=O)N2CCN(c3ccc(C(C)=O)cc3)CC2)cc1S(=O)(=O)NC
Cc1c(CCNC(=O)c2ccc(C(C)(C)C)cc2)sc2nc(-c3ccc(F)cc3)nn12
COc1ccc(CCNC(=O)CSc2cn(CCNC(=O)c3c(F)cccc3F)c3ccccc23)cc1OC
Cc1cc(C)cc(N(CC(=O)NCCc2ccc(Cl)cc2)S(=O)(=O)c2c(C)noc2C)c1
CCC(=O)N1c2ccccc2CC1C(=O)NCc1ccc(CC)cc1 (stereo not given)
Cc1ccc(NC(=O)c2c(C)oc3ccc(O)c(CN4CCOCC4)c23)cc1
Cc1ccc2c(=O)cc(C(=O)N(Cc3ccc(C(C)(C)C)cc3)C3CCS(=O)(=O)C3)oc2c1 (stereo not given)
Cc1ccccc1NC(=O)Cn1nc(-c2ccccc2)nc(Cc2ccccc2)c1=O
COc1ccc(-c2nc3sc(CCNC(=O)C(=O)Nc4ccc(OC)c(OC)c4)c(C)n3n2)cc1
O=C(CSc1nc2ccccc2n1Cc1cccc(F)c1)NCc1ccccc1
O=C(CC(c1cccs1)N1Cc2ccccc2C1=O)Nc1ccc(F)cc1 (stereo not given)
CN1CCN(C(=O)c2ccc3c(c2)N(Cc2ccc(C(F)(F)F)cc2)C(=O)c2ccccc2S3)CC1
COc1ccc(OC)c(C2C(C(=O)Nc3ccc(C)cc3)=C(C)Nc3nnnn32)c1 (stereo not given)
Cc1ccc(C)c(Nc2nn3c(=O)c4ccc(C(=O)NCc5ccccc5)cc4nc3s2)c1
O=C(CN1C(=O)COc2ccc(S(=O)(=O)N3CCCCCC3)cc21)N1CCN(c2ccc(Cl)cc2)CC1
Cc1ccc(C)c(CN2C(=O)c3ccccc3S(=O)c3ccc(C(=O)N4CCCCC4)cc32)c1 (stereo not given)
Cc1cc(C)cc(-n2ccnc2SCC(=O)Nc2ccccc2F)c1
CCOc1ccccc1NC(=O)Cn1c(=O)n(-c2ccc(C)cc2)c(=O)c2c1cnn2C
COc1ccc2c(c1)c(CC(=O)Nc1c(C)cccc1C)c(C)n2C(=O)c1ccc(Cl)cc1
Cc1ccc(C)c(N2CCN(C(=O)c3c(C)oc4nc(C)nc(N5CCOCC5)c34)CC2)c1
CCC(C)NC(=O)Cn1c(=O)n(-c2ccc(Cl)cc2)c(=O)c2c3c(sc21)CCCC3 (stereo not given)
Cc1ccc(-n2nnnc2SCC(=O)NCCc2ccccc2)cc1C
O=C(Nc1ccc(F)cc1F)C1CCN(C(=O)c2cnn(-c3ccccc3)c2-n2cccc2)CC1
